In paper PMC10726135:
This is one part of the list. At the low end of the ranking, values are background and their order means little. Measured with an extract: partners may take part in the binding.

molecular target: T1, HNF4alpha8 (COS-7 nuclear extract) (UniProt P41235-5); assay: protein-binding microarray; conditions: COS-7 nuclear extract on double-stranded Agilent 4x180k PBM; binding buffer, salt, pH and temperature not given; high values mean tight binding; double strand, one strand shown; sequences stand for … in …GCCTAGGGAGATTAGAGTATCGGTCGA
T1 sequence: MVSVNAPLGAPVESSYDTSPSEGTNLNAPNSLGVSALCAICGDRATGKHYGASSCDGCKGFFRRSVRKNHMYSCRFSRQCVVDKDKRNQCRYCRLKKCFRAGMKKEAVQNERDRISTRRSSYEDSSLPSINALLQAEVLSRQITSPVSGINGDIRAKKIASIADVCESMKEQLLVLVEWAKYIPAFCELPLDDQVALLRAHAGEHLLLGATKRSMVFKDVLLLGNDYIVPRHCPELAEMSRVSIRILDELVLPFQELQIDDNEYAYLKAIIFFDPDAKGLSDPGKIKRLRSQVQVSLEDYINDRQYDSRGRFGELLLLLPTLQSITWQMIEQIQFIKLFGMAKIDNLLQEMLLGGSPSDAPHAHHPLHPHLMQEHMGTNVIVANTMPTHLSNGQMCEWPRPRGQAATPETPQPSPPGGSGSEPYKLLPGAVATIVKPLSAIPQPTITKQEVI

Sequence | binding signal (log2 normalized intensity)
GATAAGGATTCCTGGAATGTTTGAGCTGGG | -0.533
TCAGTAAATCTGCACTTTACGTAAGATAAG | -1.13
GGTCGCGCCGGGCGCCGCTCTGAGTGACCT | 3.23
ATGGAAGGACCTTGGACTGAAGACTGGAAC | 3.17
GCAATGGCTGGGTCTAAGGGCAAGTGACTG | 0.265
ACTGGATGGTGCCTATTTGTCCCTGACCAA | 0.867
GTGTAACTATTACTGGACAGCCAGCTGGTA | -1.36
TTTTTGGTTCCCCTTCCCCCAACAGGGCTC | 4.45
CAAGCAATGGAGAGGATTTTGGAATGTCGC | 0.879
TGTACATAATCTGGACCCAAACGAATGGGC | 1.38
TTTATTTGCTTATAGCTCAAAGTCCACCAA | 6.23
AATGAATATTCAGACGCATGACCTCAACTC | 1.8
CTATAAACTTGGTTACAGGACCAGGTGTAG | 0.799
CAGGGCAGGGTATGCCTGACTGTAAGAAGT | -1.09
CCATCTATGCACTCTCACCTTGGGGGCTGC | 0.0953
CTTATCAGTAGTTCTCCTTTCTGCCCTTTG | 4.46
AGCCAGTGATTCAACTCTGACCCATAATAA | 2.33
AAGTGCTAGCTTGGTCTGAACCTCATCTGT | 0.762
ATGCTGATAAGGGCCACAGATGGCCTCACT | -1.07
TTATCTGAGACTCAAGGCAAGTTGCTTCCA | -1.06
TGTGCACAGGGTGTGGCTTCCAAGGGGAAT | -1.27
CCTCCAGCTCTTTTGAACCCAAGGCCAAAC | 2.07
CAAGGGCAGAGTCCTGGGGAGGGTAAGCAT | -0.963
TATGTCTGATGAATAGAAAGAGGTCAATGT | 3.35
CAAAGAATGGAAGGCAGTGTTCCAAAGTGT | 0.319

Sequence | binding signal (log2 normalized intensity)
CAAGTATTCAAGAAAGGGGCAAAGTTTATG | 3.19
TGCTGGCATCTCATTACTGACAGAGATCAA | -0.673
CAGCAGCAGGCAGGGACTTTGGCCCACGGT | 3.34
TCAAGGGGAAGAAATCTAAGATTTATAAAG | -1.16
CACTTAGCACAAGTGACTATTCTGGTTTGC | 0.555
CCTTTGTACCAAAATCACACTGGGAATTGG | -0.886
TGGTAAATAAAGGAACTTACGAAGATAAAT | -0.558
GTGTGCGTTTCCCAGATATCTCTGGTAAAC | -1.26
GGTTCAAAGGTCATTTCTGCTTGCAACCAA | 5.81
GCAGCGGGTCAATTAGCTTGAGCGAGACAG | -1.29
GCATTGAAAGCACTAATTAACTGAGCCTCA | -1.25
GTGACTGAGCAGAGATTTGACCTAAGTCTG | 1.87
CCATGAGCTGGCCTCACTAAGTCCTGCTTA | -1.26
AGGCTTTGAGTCAACACACCTGTGGGTAAT | -0.786
CTTGCTTTCTGCCCAGGGAGGTGCCTGTGC | -0.32
ATCAGAGCTGGAGGAGACCTTTGGATATCA | 4.01
AGATATGAGGCCAGTTTTCCCAAAGGAGCT | -1.36
CCTCTGAGGTGTTAACCTGATGCTGAAGTC | 0.944
TGAGCAGGCAGTGTCACAGAAATCATGTAG | -0.839
CAACCCTCCTCCCTTTGGCCATGAAAGTAT | 1.96
GAAAGATAAAAGGCCATAGGGAAAGATAAA | -1.42
ATGAGATACCCATTCACATGACCTTTGTCC | 8.96
GCCCTGTTTAGGAGGAAATAGAGAGCAGAC | -1.36
AGTACAGGGCGTCCTTGATAAGCAAGATGA | -1.28
ATTTGGACTTTTACTCTTAGAGATAATGGG | 2.47

Sequence | binding signal (log2 normalized intensity)
TGGACACACGAATAATGGAGCTGATGTCCT | 0.829
TAGCACTTTGGACCTCCACTTTGGAGGGGG | 2.76
AGCCACTCATTCTTGGAATGCATTGCAAGT | -1
ACAAGTGTACAAAGGTCACTTCTGTTCATT | 6.56
GCAGAAGAATGGATGAGCTAATCAGAGCAT | -1.33
TTCTCATCCGCTAATGACACCAGGGAACAC | -0.383
CACTGGCTGCTGCTCAGGAGACCGAGCAGC | -1.32
TGAATTCTGCAGCAGATGGCCAGCCTTTGG | -0.939
TCTAAACCTAGCAGCCTGCCACCCAACCTG | -1.32
GCTCTGATACTTTCTGTATCTAATCTCAGA | -0.752
CAAACAGCTTAGGGTTCAAACTCCAGCTCT | 4.15
TGACAAGCAGCCTCAGTGGCTCACAAATGG | -1.48
GTAAAGCCACTGCCTAGATAAAAGGGTCTT | -1.26
CTCGGAGACACACTCAGGCACTGGGATCCA | -1.1
GATTCACAGCAGGCTCACAAGATTGCATTC | -1.01
AACACTGGATAAAGTCCATATTCTTTGTTT | 2.56
GAGTAAGCAATCAGATATCCATTTATCTCA | -0.96
GTCATTGGTATCCACAGAGTTCATAATTTT | 0.993
AAAGTGTCAAGTAGAGACCTGTCTTCCTGG | -0.0215
TAAGACATGCTCGCAGCTGCATAGATAAGA | -1.4
GAGCAAAGATCATCTGGTGGCTATCAAGCA | -1.11
TGCAGACAGTCCCTCCTCCAGCATAGGCTA | -1.21
TTGAAGAGCACAGGGTCAGCAGATCTTTGT | 0.292
TCCCTTGCTCCACCCTTCTATCCCCTTATC | 2.94
TCAACAGAGTGCTTAATCTCTGCTCATAAT | -1.32

Sequence | binding signal (log2 normalized intensity)
GTGATCAATGTGACTGGAGCAGAGCGATCA | -1.34
AGTTCAGCCCTTAGGACCAGGGGGGGAATG | -1.46
CTCAGGCACACAAAAAAAACCACTCTTATC | -1.24
TCCCAACAGGAGATTACTTCAAGGCTGGAG | -1.39
CTACCCTTCATCTTCAATACAGAGTCCAAA | 3.83
GCAAGACTTCTTCAGGGAGACTTCCAGGGA | -1.37
TCTTGCAGTCCACATTTCTGAGCTGTGGAA | 0.0191
AAATCAATCAAACTCTCTGTGGATGTATGT | 1.99
ACCTATGAGACATTTTGTCTTTTCTCCCCT | 2.59
GAGGGATTTTCAGTATACTGACTTATCAGG | 1.06
GTAATGAAAGGAAATCATTCCAGAAAGACA | -1.31
AAAGCTCAGATTGCCTAAAGGGGATTTTCT | -1.28
TTGGAATCAAACAGATGTAGACATTGGAAT | 3.47
GACCCGCCGCCCGAGGTCACTGTATGCCCG | 2.69
GGGAGATTCCTGACATTCAGTCTTTGTCTT | 1.27
GGGAGTCCTGGGCGTTGCTCTCCCACCCCG | 3.3
GATTCCACACTGGCTAGATAAGGCTGAAAC | -1.25
TTGCCAAGTCCTTCCCAAACTATAGATTTG | -1.29
AGGGCCCGCTGATCCCGGGAGGGAGAGAAG | -1.38
CTGGCCAGAAGGTCAGAGATCAGGTCTCTT | 2.03
CTTGGGTGTATGGGTATAGGCGCGCGTGTG | 1.37
AGAAACAGCTGGATTGTTACATCATAGTGT | 1.01
ATCAGCTTATCTCAAGAATTGTCTAACCGC | -1.27
TTTTTTTTCTTTCTTTTCCCAAACCACGTT | 1.23
TTTTGTATGCATAAGGCCTTGGACCTTCTG | 3.19

Sequence | binding signal (log2 normalized intensity)
TTCCCTTTGTATGGCAGGGGTTAACCTCTA | 3.4
GAGCAGGCCTGGGCTTGCAAAGGTCAGGTT | 3.71
GTGTCAATTCTCATTCATCCAAGGACTTTG | 2.49
TAGGTTAGATAGGAATCTGGATGGCTGAGC | -1.27
CACACACACACACACACCCCACACACCAAA | 2.82
GCACATTCCTTTCCCTTTATTTAGCCTCAC | 0.788
CGTTAGGCTACAGTGGTAACCACAGTACTG | -1.34
GAAAACCTTAGGCGAATGTCAAAGGTCTTT | 3.64
CGCTCTGAGTGACCTTTCACCCGCGCCCAG | 6.45
GTCAGCCACCCCTCCTCCTGGGGGCTTTTG | 1.91
CATCAATTTAGACCGTGTGGAAACCTAACT | -1.14
TATGAGGCTTCCATTCTCAGGCAGATGGGC | -1.16
GTTTACTCAGTCATACCACATGGATGGATT | 0.755
AGGTGCTGCACCTTGAAACCCCTCCTTACA | 3.44
AGAGAAGCACATCCAGGCAGCTTCAGAAAC | -1.32
AGGGGTGTGTTGACCGATAACCCTCCTGAA | 1.61
GCAGTGACATGATCAAAGTTCATTGTAGCC | 4.38
GATGTTTGGTCTTATTATCTTCAATGATAA | 0.873
ATGTCTTCTTTTATCACTTTGTAATGTCCC | 2.36
CCTTAGATCCACGGAGAATGTAGACCTTTA | 2.68
GGCTCCAGAGTTTAATACCTCTGATCACTA | -1.24
CCCACTTCAGGCAGGAATGCTGAACAATTG | -0.848
TCTAAGAAATAGGTTAAAGAGTGGTCTTGG | 0.813
GTGATTCAACTCTGACCCATAATAACGTCT | 1.61
AGTTCTGAATGAGCAGACTGAGTTGCAGGA | -1.05

Sequence | binding signal (log2 normalized intensity)
CAACATACAGAGGCTCTGAGAGTCTCAGTG | -1.33
TAAAGTGGATTGCTGGCCTTTTATCTTTTA | 1.36
CTGTTTGTATAACCCTGGCTGGAGTTGCTG | -1.23
TGGAACACAGAGGGAAATGCAAACATTTCT | -1.24
GGGTATGAATTTAACCTTTGCTCTCTGAAA | 6.63
AGGTACTAAGAGATTTGAATATGTACATGG | 0.942
CTGCAGTGTGACCTTTGCCTTCTTGACATC | 6.8
GATTGTTGTGTGCCCACCTGGGCAACAGGG | 1.1
GACGCGCTTGGGCGACGGACGCGCCGCGCC | -1.32
TCTGGGATCTCAGGGTGGACTTTAAACATT | 6.85
GATAAGGCTAATCCTTACACAGCAGCTTTA | -1.25
AGCCCAGGTAACATACCAAAAAGCATAACT | -1.17
CTCACCTTCAGATGCCATGTCTAAAGGCTG | -1.23
TAAGAAATCAGGAGCAAAGGTTGGGGGTGG | 1.51
GCCACATCCTGTCTCCTTTAACCTTCATTC | 1.97
CCACAAAGGCCAGAGAAAGAGAGAGTTAGT | -1.29
CAGTCCACATGGTGTCTTTTGTTGTTGTTA | 2.16
ACCCAGTTCGTGCTTCTTGGCCTCTTTGTT | 1.85
GGCCAGCGACTTTAGGGGCCAAGGGAAAAC | -1.29
CCTTGCTCAACTCCCTCTGAAGGGAGGGCC | -1.36
